Assay results as given in paper PMC4336329 (PLoS ONE, 2015).
Screen size: about 310,000 compounds; about 14,000 (4.5%) showed an effect of 50% or more. Effects have a minus sign here. This is one part of the list.

biological target: human ether-à-go-go-related gene (hERG) potassium channel (human, UniProt Q12809); experiment: primary screen, population patch clamp on CHO cells stably expressing hERG
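Also: peak tail current of the secondary pulse compared with the same well before compound.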

Sequence of human ether-à-go-go-related gene (hERG) potassium channel (Q12809 whole entry, looked up): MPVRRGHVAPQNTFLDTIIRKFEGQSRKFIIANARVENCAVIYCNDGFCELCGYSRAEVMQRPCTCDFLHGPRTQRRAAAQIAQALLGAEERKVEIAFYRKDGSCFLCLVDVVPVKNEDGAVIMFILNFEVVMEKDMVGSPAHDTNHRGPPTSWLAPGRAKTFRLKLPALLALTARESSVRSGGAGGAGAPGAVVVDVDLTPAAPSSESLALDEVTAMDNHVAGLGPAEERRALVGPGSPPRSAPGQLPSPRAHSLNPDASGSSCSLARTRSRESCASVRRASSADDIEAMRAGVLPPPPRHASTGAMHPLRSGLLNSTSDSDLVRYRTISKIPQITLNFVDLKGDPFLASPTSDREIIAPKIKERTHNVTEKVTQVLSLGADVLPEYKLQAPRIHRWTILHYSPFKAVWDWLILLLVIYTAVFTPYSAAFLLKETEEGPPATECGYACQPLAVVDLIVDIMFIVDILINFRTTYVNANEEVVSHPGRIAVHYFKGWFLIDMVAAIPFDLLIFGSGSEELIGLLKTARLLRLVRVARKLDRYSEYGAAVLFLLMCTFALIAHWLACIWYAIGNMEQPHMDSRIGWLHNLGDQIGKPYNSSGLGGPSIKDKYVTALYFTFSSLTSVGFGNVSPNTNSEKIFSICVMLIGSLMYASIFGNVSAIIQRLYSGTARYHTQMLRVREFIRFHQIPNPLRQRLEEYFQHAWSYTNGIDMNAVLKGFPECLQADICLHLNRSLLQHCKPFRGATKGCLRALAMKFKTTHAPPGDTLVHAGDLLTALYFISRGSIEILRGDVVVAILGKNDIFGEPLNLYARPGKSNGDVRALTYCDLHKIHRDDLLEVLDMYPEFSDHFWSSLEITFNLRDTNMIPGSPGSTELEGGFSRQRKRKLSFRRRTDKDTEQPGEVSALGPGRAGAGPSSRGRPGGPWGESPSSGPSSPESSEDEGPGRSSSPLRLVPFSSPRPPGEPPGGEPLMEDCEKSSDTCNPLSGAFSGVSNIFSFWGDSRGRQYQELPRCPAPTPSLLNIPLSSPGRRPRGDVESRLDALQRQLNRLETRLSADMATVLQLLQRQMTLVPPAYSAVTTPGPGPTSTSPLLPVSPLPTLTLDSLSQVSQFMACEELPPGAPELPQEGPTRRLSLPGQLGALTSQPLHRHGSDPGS

SMILES | hERG current change (%, negative = inhibition) at 10uM [%]
Cc1cccc(C)c1NC(=O)CS(=O)CC(=O)NCC1OCCc2ccccc21 (stereo not shown) | 22.2
C=CCn1c(P(C)(=O)O)nc2ccccc21 | 17.5
CCCCn1c(CCNC(=O)CC)nc2ccccc21 | -11.2
CCC(=O)c1ccc(OCC(=O)OCC(=O)N2CCc3ccccc3C2)cc1 | -24.8
COc1ccc(-c2oc(NC(=O)c3ccc(C)cc3)c(C#N)c2-c2ccc(OC)cc2)cc1 | -11.6
CCOc1cc2c(cc1/C=C1/NC(=O)N(CC(=O)OC)C1=O)OCO2 | 15
Cc1cc(N2CCC(C(=O)NC3CCCCC3)CC2)nc(-c2ccccc2)n1 | -49.6
CCOc1ccc(CCNC(=O)CSc2cc(=O)n(C)c3ccc(Cl)cc23)cc1OCC | -21.4
CCCCC1(CCCC)C(=O)NC(=Nc2cccc(C)c2)NC1=O | 0.0469
O=C(c1ccc(Cl)c(S(=O)(=O)Nc2ccc(F)cc2)c1)N1CCN(c2ccccn2)CC1 | -33.9
Cc1oc(-c2ccccc2F)nc1CS(=O)CC(=O)NCc1ccccn1 (stereo not shown) | -0.614
O=C(NC1CCCC1)C(c1ccncc1)N(C(=O)c1csnn1)c1ccccc1 (stereo not shown) | 15.1
Cc1cccc(NC(=O)C2c3ccccc3Oc3ccccc32)n1 | 4.69
Cc1ccc(-c2cc(C(=O)NCCc3ccc(S(N)(=O)=O)cc3)c3ccccc3n2)cc1 | -1.37
Cc1cc(C)cc(NC(=S)NCC2CCN(C(C)c3ccccc3)C2)c1 (stereo not shown) | -63.3
CCOC(=O)c1ccc(N=c2sc(C(=O)OC)cc(=O)n2C2CC2)cc1 | -0.0139
CC(C)(C)NC(=O)Cn1cc(C#N)c2cc(Br)ccc21 | 4.22
COc1ccc(OCCCC(=O)Nc2cccc(S(=O)(=O)N3CCCCCC3)c2)cc1 | -45.2
O=C(Nc1ccc(CN2CCCCC2)cc1)c1c(F)c(F)c(F)c(F)c1F | -56.5
Cc1c(C2CC(=O)N(c3ccccc3)C2=O)[nH]n(-c2ccccc2)c1=O (stereo not shown) | 3
CCOC(=O)c1c(NC(=O)c2nn(CC)cc2Br)c(C#N)nn1-c1ccccc1 | -2.69
CCc1ccc(C2C3=C(CCCC3=O)OC3=C2C(=O)CCC3)cc1 | 3.19

SMILES | hERG current change (%, negative = inhibition) at 10uM [%]
CC1/C(=N/O)C(CN(C)C)C2CC1C2(C)C.Cl (stereo not shown) | 18.8
COc1ccc(C(=O)c2coc3ccc(O)c(CN4CCOCC4)c23)cc1 | -51.2
COc1ccc(C(=O)NCCN2CCOCC2)cc1[N+](=O)[O-] | 8.47
O=S1(=O)CCO[C@H]2Cc3ccccc3[C@H]2N1Cc1cccc(C(F)(F)F)c1 | -9.04
COc1ccc(-n2c(CNC(=O)COc3ccc(Cl)cc3)n[nH]c2=S)cc1 | -0.948
Cl.O=C(CN1CCNCC1)NCCSc1ccc(Cl)cc1 | -15.7
Cn1c(CCNC(=O)c2ccccc2F)nnc1SCC(=O)Nc1ccccc1F | 3.44
CC(C)COC(=S)Nc1ccccc1 | 6.77
O=C1NC[C@H](Cc2ccccc2)N(CC2CCCCC2)C1=O | 4.91
CCCOc1ccccc1C(=O)N1CCNC(=O)C1CC(=O)OC(C)C (stereo not shown) | 0.716
Cc1ccc(C(=O)NCC(=O)N/N=C/c2sccc2C)cc1[N+](=O)[O-] | 18.6
CN(C)C(CNC(=O)CCNS(=O)(=O)c1ccccc1C(F)(F)F)c1ccccc1 (stereo not shown) | -27.8
O=C(OC(C(=O)NC1CCCCC1)c1ccccc1F)c1ccco1 (stereo not shown) | 10.7
O=C(Nc1cccc2[nH]ncc12)c1ccc(F)cc1 | -17.4
Cc1cccc(NC(=O)c2cc(S(=O)(=O)N3CCOCC3)cn2C)c1C | 0.701
CC1CC(C)(C)NC(=S)N1CCC(=O)N1CCc2ccccc2C1 (stereo not shown) | 0.935
C=CCOc1ccc(CNCCO)cc1OCC.Cl | -5.9
O=C(CC1CCCCC1)NCc1ccccc1Cl | 2.13
Cc1c(C(=O)N2CCN(c3ccccc3F)CC2)sc2ncn(CC(=O)N3CCOCC3)c(=O)c12 | -3.64
O=C(CSc1ncn[nH]1)NCCCc1ccccc1 | 10.1
O=C(CCn1c(=O)oc2ccccc21)N(Cc1ccccc1)c1ccccn1 | -17.3
CC(=O)NCCC(=O)N1CCCC(CNC(=O)c2ccc(-c3ccccc3)cc2)C1 (stereo not shown) | -0.511

SMILES | hERG current change (%, negative = inhibition) at 10uM [%]
CCCCn1c2c(c3ccccc31)CCc1nonc1-2 | -11.9
CC(NC(=O)c1cc(Br)ccc1Br)c1ccccc1 (stereo not shown) | 4.77
O=C(NCCCN1CCCC1=O)c1nnc(Cc2c(F)cccc2Cl)o1 | 1.34
CCOC(=O)C(=O)/C(=C\N(C)C)c1onc(-c2ccccc2Cl)c1C(=O)OC | 0.95
CC1CCCCC1NC(=O)CN1C(=O)c2ccccc2S1(=O)=O (stereo not shown) | 17.1
COc1ccc(CN2C(=O)C(CC(C)C)Nc3ncnc(N4CCOCC4)c32)cc1.O=C(O)C(F)(F)F (stereo not shown) | -0.749
COc1ccc(CCn2c(SCC(=O)Nc3cc(C)on3)nc3ccccc3c2=O)cc1OC | 0.454
COc1ccc(C2CC(c3ccc(Br)cc3)=NN2C(=O)CCC(=O)O)cc1OC (stereo not shown) | 9.97
Cc1ccccc1C(=O)OC1OC(=O)C(Cl)=C1Nc1ccccc1 (stereo not shown) | 1.75
Cc1ccc2c(c1)C(c1ccc([N+](=O)[O-])cc1)=NNC(c1ccc(Br)cc1)=N2 | -17.4
CCN(CC)S(=O)(=O)c1ccc(NC(=O)c2cnc(C)cn2)cc1 | 8.22
Cc1nn(C)c(Cl)c1CN1CCCC(CCC(=O)NCc2ccccc2F)C1 (stereo not shown) | -27
CCOC(=O)c1[nH]c(C)c(C(=O)NCc2ccccn2)c1C | 8.34
CN(C)C(=O)/C(C#N)=C\c1cc(Br)c(Sc2ccc(Cl)cc2)o1 | -2.4
O=C(Oc1ccc(=O)n(-c2ccccc2)n1)c1cccc(Cl)c1 | 6.78
CCC(C)[C@@H](C(=O)NCC1CCC(C(=O)O)CC1)n1nnc2ccccc2c1=O (stereo partly shown) | -6.52
COC(=O)c1ccc(CSc2nnc(NCc3ccccc3)s2)o1 | -11.7
COC(=O)c1ccc(NC(=O)C2CCCN2S(=O)(=O)c2ccc(OC)cc2)cc1 (stereo not shown) | -16.8
O=c1[nH][nH]c(-c2ccccc2)c1C=Nc1cccc(Cl)c1 | 5.35
COc1ccc(OCCCC(=O)N(C)CC(=O)Nc2c(C)cccc2C)cc1 | -1.89
Cc1ccc(C2CCN(C(=S)NC(C)C)C2)cc1 (stereo not shown) | 11.7
CCOC(=O)c1c(-c2ccc(OC)cc2)csc1NC(=O)C1CCCO1 (stereo not shown) | 11

SMILES | hERG current change (%, negative = inhibition) at 10uM [%]
CCCn1nnc(NC(=O)/C=C/c2ccco2)n1 | 11.6
Cc1cccc(NCC(=O)N/N=C\c2cccn2C)c1 | 0.687
COC(=O)c1ccc(COc2ccc(F)cc2)o1 | -27.4
Cc1cc(NC(=O)CSCC(=O)OCc2nnc(-c3ccccc3)o2)no1 | 26.9
COc1ccc(CN2C(=O)C3C4C=CC(C4)C3C2=O)cc1 (stereo not shown) | 13.4
Cc1ccc(-c2nn(-c3ccccc3)cc2/C=N/NC(=O)CSc2nnc(C)n2-c2ccccc2)cc1 | 2.45
Cc1cc(N2CCN(C)CC2)nc2ccc(NC(=S)N3CCN(c4ccc(F)cc4)CC3)cc12 | -3.11
CC(=O)N(c1ccc2oc(=O)sc2c1)S(=O)(=O)c1ccccc1 | 2.13
COC(=O)C1(Cc2cc(-c3ccc(OC)cc3OC)no2)CCN(C(=O)OC(C)(C)C)CC1 | 2.01
CCN(CC(=O)Nc1ccc2c(c1)OCCO2)C(=O)/C=C/c1cccc(Br)c1 | -28.7
COc1cccc(C(=O)N2N=C(c3cccc(OC)c3)CC2(O)C(F)(F)F)c1 (stereo not shown) | 17
Br.Cc1ccc(C2=CSC3=NCCN23)c(C)c1 | -26.8
Cc1sc2nc(C3CC3)nc(N3CCN(C(=O)c4ccccc4F)CC3)c2c1C.Cl | -37.6
COc1ccc(OC)c(-c2nn(-c3ccccc3)cc2C(=O)NCC(c2ccco2)N2CCCC2)c1 (stereo not shown) | -63.7
CCOC(=O)CN1C(=O)CSc2ccc(S(=O)(=O)N3CCOCC3)cc21 | 9.95
NC(=O)CN1C(=O)C2C3c4ccccc4C(c4ccccc43)C2C1=O (stereo not shown) | 3.59
CN1CCN(C(=O)c2c(NC(=O)c3ccco3)sc3c2CCC(C(C)(C)C)C3)CC1 (stereo not shown) | -69.5
CN(c1ccc(C(=O)N2CCCCCC2)cc1)S(=O)(=O)c1ccccc1 | -6.01
CC1(C)C2SCC(=O)N2CCN1CC(=O)NN (stereo not shown) | -0.829
O=C(Cn1cccc1C(=O)c1ccccc1)NCCN1CCOCC1 | -2.26
CCCCOc1ccc(OCCNS(=O)(=O)N(C)C)cc1 | -16.9
Cc1onc(-c2c(F)cccc2Cl)c1C(=O)Nc1ccc(Cl)c(S(=O)(=O)N(C)C)c1 | 11.7
